According to the domain aggregation screens of Martell et al. (2025):

Assay: soluble fraction after stress (log2 fold change); higher = more stays soluble; pooled small domains, quantitative proteomics
Details: stress: 50 degC
Method in brief: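 Quantitative proteomics served as the high-throughput read-out for pooled custom libraries of small protein domains. Each was stressed at 50°C. Aggregation propensity is expressed as the base-two log fold change in soluble protein after stress. A higher value means a larger share of the protein remains in solution.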

Going from “HMADYYSVLGVERDATEEEIKRAYRKMSRKYHPDLAGPQFEEKFKEVNTAYEVLSDPEKRRMFDMGVDPN” to “HMDQVDDEELLDLVELEVRELLSAYEFPGDDIPIIKGSALAALEGGDEATGKNAILELMKAVDDYVPQPE”, the “soluble fraction (log2)” value falls from 0.13 to -0.138.

Compared with “HMGIYRHFKGGLYEVVGTAKHSETEEELIVYRALYGDYGLWARPAAMFTETVEIDGEPLPRFSLI”, “HMKAAYITIHDKIKDDIDLGIWKIGQRLPSERDLADEFGVSRMTLRQAITLLVEEGVLTRKVGSGTYVAS” is lower in “soluble fraction (log2)” value: -0.495 for the first, -3.03 for the second.

First: HMKYKDYYAVLGVPRDADLDQIKKAYRKLARQFHPDVSKEPNAEAQFKEAGEAYATLKDAEKRAAYDQLG
Second: HMNDDYYAILGVSRDADQSEIKKAYRKKARETHPDYGGDEEAFKAVSVAYETLSDPEKRRMYDIGGPDAAR
The “soluble fraction (log2)” value of the first is higher: 0.22 for the first, 0.0172 for the second.

Compared with “HMPLHDIGKVGIPDHILLKPGKLTPAEWEVMKTHARLGAAAIEQAEREATRPVEFLVLAKEIAHHHHER”, “HMPREEGIVKWFNRTKGFGFIIRENGDEIFVHHRSVSAHGGQRANLSDGQRVTFTVVERSKGWQAEDVDP” is lower in “soluble fraction (log2)” value: 0.337 for the first, -2.25 for the second.

Compared with “HMQSHRFQRLQNDLANRIAQTPPSERLPSEPQLAQELGVSRATLREAMRAFEAQGLIRRKQGAGTFVVG”, “HMQVDDAELIDLVEMEIRELLTSYEFPGDTIPIVKGSALAALEGRDDEIGKNSILELMKAVDESIPQPT” is lower in “soluble fraction (log2)” value: 0.225 for the first, -0.0254 for the second.

Compared with “HMSDYYSVLGVSRDATGEEIKRAYRKLARELHPDVNPDPATNEKFKEVTAAYEVLSDPSKRQMYDLGGDPR”, “HMVDYYEVLGVRVDASDSEVKRAYRRLIVENHPDKLIAQGLPQEFIDLANEKMGAINSAYDMIKKERRI” is lower in “soluble fraction (log2)” value: 0.0592 for the first, -0.445 for the second.
